Experimental data published in PubChem BioAssay AID488969 (Vanderbilt High Throughput Screening Facility, 2010).
Over roughly 110,000 compounds, “z-score” has its median near -0.1; the highest 2% begin near 2. This is one part of the list. Activity calls are given as the source filed them.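 Rule for the calls: active = z-score in the third read window above 3 or below -3; inactive = the rest.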

target: Metabotropic glutamate receptor 8 (Rattus norvegicus) (UniProt P70579); assay: rat mGluR8 modulators via GIRK flux, primary screen, cell-based, thallium flux, HTS (AID 488969); details: HEK293 rat mGluR8, GIRK (G protein-gated inwardly rectifying potassium channel) thallium flux, FluoZin2; at 10 µM; stronger effect = higher value; submaximal glutamate (EC20) added with thallium
Chain of UniProt P70579 (P70579 whole entry, looked up): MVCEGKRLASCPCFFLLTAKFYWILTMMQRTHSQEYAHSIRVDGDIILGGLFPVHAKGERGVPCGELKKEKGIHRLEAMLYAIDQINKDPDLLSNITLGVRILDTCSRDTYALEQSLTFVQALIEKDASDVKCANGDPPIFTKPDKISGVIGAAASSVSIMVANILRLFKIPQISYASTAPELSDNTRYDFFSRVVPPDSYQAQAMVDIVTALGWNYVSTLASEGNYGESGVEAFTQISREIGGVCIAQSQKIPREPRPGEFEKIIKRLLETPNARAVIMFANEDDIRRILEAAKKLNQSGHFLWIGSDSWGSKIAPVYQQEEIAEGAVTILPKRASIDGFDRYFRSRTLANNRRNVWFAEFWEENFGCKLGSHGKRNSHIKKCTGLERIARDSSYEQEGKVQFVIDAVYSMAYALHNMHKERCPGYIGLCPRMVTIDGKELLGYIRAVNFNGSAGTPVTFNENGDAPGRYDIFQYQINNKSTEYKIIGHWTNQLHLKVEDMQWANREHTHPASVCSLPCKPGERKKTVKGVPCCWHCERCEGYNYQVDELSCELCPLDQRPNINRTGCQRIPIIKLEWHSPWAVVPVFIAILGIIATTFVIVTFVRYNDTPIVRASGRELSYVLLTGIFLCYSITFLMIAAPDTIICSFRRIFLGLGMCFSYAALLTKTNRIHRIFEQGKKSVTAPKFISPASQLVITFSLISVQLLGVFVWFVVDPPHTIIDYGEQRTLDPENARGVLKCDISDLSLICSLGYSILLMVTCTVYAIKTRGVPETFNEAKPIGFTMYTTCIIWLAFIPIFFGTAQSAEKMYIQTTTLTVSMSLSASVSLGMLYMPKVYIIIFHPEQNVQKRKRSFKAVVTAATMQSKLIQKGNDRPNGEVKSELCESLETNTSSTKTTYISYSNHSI

Row | Compound | z-score
1 | Cc1ccc(OCCC(=O)Nc2c(C)n(C)n(-c3ccccc3)c2=O)cc1 | 0.284
2 | Cc1cc(=O)oc(C)c1C(=O)Nc1c(C)n(C)n(-c2ccccc2)c1=O | -0.283
3 | O=C(COc1nc2ccccc2nc1N1CCOCC1)NC1CCCCC1 | 0.225
4 | O=S(=O)(NCc1cccnc1)c1cc(Cl)ccc1Cl | -0.195
5 | COC(=O)c1ccc(CNC(=O)COC(=O)CCC2CCCC2)cc1 | 0.00997
6 | N#C/C(=C/c1ccc(N2CCCCCC2)o1)c1cccc(F)c1 | -0.488
7 | O=C(NNC(=O)c1sc2cccc(Cl)c2c1Cl)Nc1ccccc1 | -0.00877
8 | CCn1c(SCC(=O)Nc2ccc3c(c2)OCO3)nc2c(c1=O)SC(C)C2 (configuration not stated) | -1.26
9 | Cc1ccc(O)c(-c2cc3ccccc3[nH]2)c1 | -0.436
10 | COc1ccc2c(c1)c1ncn(CCN3CCCCC3)c(=O)c1n2C | 0.327
11 | CCCN(CCO)Cc1ccc2ccccc2c1 | 0.118
12 | CCCCOc1ccc(C(=O)Nc2cccc(C)n2)cc1 | 0.799
13 | O=C1c2[nH]nc(-c3ccccc3O)c2C(c2cccc(O)c2)N1Cc1ccco1 (configuration not stated) | -1.07
14 | O=C(Cn1nc(Cc2ccncc2)c2ccccc2c1=O)N1CCc2ccccc2C1 | -0.433
15 | CCOC(=O)c1c(NC(=O)C2CCN(S(=O)(=O)c3cccs3)CC2)sc(C)c1C | -0.183
16 | COc1ccccc1NC(=O)CSc1nnc(-c2ccc(C)cc2)o1 | 0.0983
17 | CC(=O)Nc1cc(C(=O)N2CCCC2)ccc1S(=O)(=O)c1ccc(C)cc1 | -0.215
18 | O=C(CCCNC(=O)/C(=C\c1ccc(F)cc1)NC(=O)c1ccccc1)OCc1ccccc1 | -0.231
19 | CCn1c(SCC(=O)N2CCCC2)nc2ccccc2c1=O | -0.614
20 | O=C(NC(=S)Nc1ccccc1)c1csnn1 | active: 12.4
21 | Cc1ccc(C(=O)COC(=O)c2n[nH]c(=O)c3ccccc23)cc1 | -0.454
22 | Cc1ccc(NC(=O)CN2C(=O)N/C(=C/c3ccc(C)s3)C2=O)cc1 | 0.22
23 | COc1ccc(N2CCN(c3nc4ccccc4nc3NS(=O)(=O)c3ccccc3)CC2)cc1 | -0.415
24 | O=C(CNCCCO)Nc1cc(C(F)(F)F)cc(NC(=O)CNCCCO)c1Cl | -0.195
25 | CC1(C)CC2(CCO1)N1CC3(C)CN2CC(C)(C1)C3=O (configuration not stated) | -0.0677
26 | O=C(NC(=S)Nc1cccc(NC(=O)c2ccccc2)c1)c1cccc([N+](=O)[O-])c1 | -0.0765

Row | Compound | z-score
27 | COc1ccc(CSCC(=O)N/N=C/c2ccc(OCC(=O)N3CCCCC3)cc2)cc1 | 0.789
28 | O=C(CN1C(=O)c2ccccc2C1=O)Nc1ccc(S(=O)(=O)NCC2CCCO2)cc1 (configuration not stated) | 0.358
29 | CCCCNC(=S)N=Nc1c(O)n(Cc2ccccc2)c2ccccc12 | active: 3.24
30 | C=CCNC(=O)/C(=C/c1cn(-c2ccccc2)nc1-c1cccc([N+](=O)[O-])c1)NC(=O)c1ccccc1 | 0.195
31 | CCN(CC)CCCNC(=O)c1nn(-c2ccc(OC)cc2OC)c(=O)c2ccccc12 | 0.819
32 | Cc1ccc(CN2C(=O)CCC2C(=O)NCCCN2CCOCC2)cc1 (configuration not stated) | 0.61
33 | Cc1cc(C(F)F)n2ncc(C(=O)N3CCCCC3)c2n1 | 0.264
34 | O=C(Nc1ccccc1-c1nnn(CC(=O)N2CCCc3ccccc32)n1)c1cccc(Cl)c1 | -0.264
35 | O=C(/C(=C(/[O-])c1ccccc1)[n+]1ccccc1)c1ccc([N+](=O)[O-])cc1 | -0.0505
36 | O=C(CSc1nnc(CNC(=O)C23CC4CC(CC(C4)C2)C3)n1-c1ccccc1)Nc1ccccc1 | -0.232
37 | COc1ccc2cc(C)c3nnc(SCC(=O)Nc4nc(-c5ccc(F)cc5)cs4)n3c2c1 | -0.129
38 | CN1CCN(C(=O)c2ccc3c(c2)OCCO3)CC1 | -0.229
39 | O=C(NCc1ccc2c(c1)OCO2)c1ccc(CS(=O)(=O)c2cccc(C(F)(F)F)c2)o1 | -0.319
40 | CCOC(=O)C(NC(C)=O)(Nc1ccc(S(=O)(=O)Nc2nccs2)cc1)C(F)(F)F (configuration not stated) | -0.0419
41 | CC(=O)c1cc(CC=C(C)C)c(O)cc1O | -0.324
42 | CC(C)C(C)(C#N)NC(=O)CSc1nc2scc(-c3ccc(F)cc3)c2c(=O)n1Cc1ccccc1 (configuration not stated) | 0.87
43 | CC1CCN(C(=O)CCc2ccc(Oc3cc([N+](=O)[O-])cc([N+](=O)[O-])c3)cc2)CC1 | -0.246
44 | N#Cc1c(C(F)(F)F)cc(-c2cccs2)nc1SCc1ccc(Cl)nc1 | 0.143
45 | Cc1sc2ncnc(N3CCCCC3)c2c1C | -1.55
46 | CCCCOC(=O)CSCC(=O)N1N=C(c2cccs2)CC1c1ccc(F)cc1 (configuration not stated) | -0.426
47 | NS(=O)(=O)c1ccc(N2N=C(c3ccc(Br)cc3)CC2c2ccc(F)cc2)cc1 (configuration not stated) | 0.139
48 | Cc1ccsc1C(=O)N1CC(=O)Nc2ccccc21 | -0.171
49 | COc1ccc(NC(=O)c2cccnc2N2CCCC2)cc1 | 0.603
50 | COc1cc2c(cc1NC(=O)c1cccnc1)oc1ccccc12 | 0.495
51 | COc1cccc(CN(c2ccc3c(c2)CCC3)S(=O)(=O)c2ccc(-n3cnnn3)c(OC)c2)c1 | -0.386
52 | Cc1cc(C)n(-c2nc(NCC3CCCO3)c3c4c(sc3n2)COC(C)(C)C4)n1 (configuration not stated) | -2
